Assay results: the supplement of paper PMC4967469

Assays:
Assay in all cases: Viability of human cancer cell lines after 72 h of drug (GDSC screen)
MPS-1-IN-1 = compound: COc1cc(N2CCC(O)CC2)ccc1Nc1cc(Nc2ccccc2S(=O)(=O)C(C)C)c2cc[nH]c2n1 [MPS-1-IN-1]; conditions: top dose 20 µM; top dose inferred
Protocol: (§1)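 Human cancer cell lines in 384-well plates, medium with 10% serum, drug for 72 h over a 256-fold dose range (nine 2-fold or five 4-fold steps up to the top dose). Adherent lines were fixed and stained with the nucleic acid dye Syto60, suspension lines read with resazurin; signal relative to control wells, capped at 0 and 100%. One two-parameter sigmoid per drug and line, fitted in a mixed model over all curves with the slope shared within a line.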

ABT-869 = compound: Cc1ccc(F)c(NC(=O)Nc2ccc(-c3cccc4[nH]nc(N)c34)cc2)c1 [ABT-869]; conditions: top dose 1.024 µM; top dose inferred
Protocol: as §1

ABT-888 = compound: C[C@]1(c2nc3c(C(N)=O)cccc3[nH]2)CCCN1 [ABT-888]; conditions: top dose 5 µM; top dose inferred
Protocol: as §1

GSK269962A = compound: CCn1c(-c2nonc2N)nc2cnc(Oc3cccc(NC(=O)c4ccc(OCCN5CCOCC5)cc4)c3)cc21 [GSK269962A]; conditions: top dose inferred
Protocol: as §1

Cytarabine = compound: Nc1ccn([C@@H]2O[C@H](CO)[C@@H](O)[C@@H]2O)c(=O)n1 [Cytarabine]; conditions: top dose 2 µM
Protocol: as §1

Thapsigargin = compound: C/C=C(/C)C(=O)O[C@H]1C(C)=C2[C@H]([C@@H]1OC(=O)CCCCCCC)[C@@](C)(OC(C)=O)C[C@H](OC(=O)CCC)[C@@]1(O)[C@H]2OC(=O)[C@@]1(C)O [Thapsigargin]; conditions: top dose 0.512 µM; top dose inferred
Protocol: as §1

CHIR-99021 = compound: Cc1cnc(-c2cnc(NCCNc3ccc(C#N)cn3)nc2-c2ccc(Cl)cc2Cl)[nH]1 [CHIR-99021]
Protocol: as §1

CP466722 = compound: COc1cc2ncnc(-n3nc(-c4ccccn4)nc3N)c2cc1OC [CP466722]; conditions: top dose 16 µM; top dose inferred
Protocol: as §1

(5Z)-7-Oxozeaenol = compound: COc1cc(O)c2c(c1)/C=C/C[C@H](O)[C@H](O)C(=O)/C=C\C[C@H](C)OC2=O [(5Z)-7-Oxozeaenol]; conditions: top dose 10 µM; top dose inferred
Protocol: as §1

QL-X-138 = compound: C=CC(=O)Nc1cc(-n2c(=O)ccc3cnc4ccc(-c5cn[nH]c5)cc4c32)ccc1C [QL-X-138]; conditions: top dose 10.24 µM; top dose inferred
Protocol: as §1

KU-55933 = compound: O=c1cc(-c2cccc3c2Sc2ccccc2S3)oc(N2CCOCC2)c1 [KU-55933]; conditions: top dose 10 µM
Protocol: as §1

Zibotentan = compound: COc1nc(C)cnc1NS(=O)(=O)c1cccnc1-c1ccc(-c2nnco2)cc1 [Zibotentan]; conditions: top dose 20 µM; top dose inferred
Protocol: as §1

[1] = top dose 5 µM, screen: GDSC drug entry 1192
[2] = top dose 2.56 µM, screen: GDSC drug entry 154
[3] = top dose 10 µM, screen: GDSC drug entry 1241, top dose inferred
[4] = top dose 2.5 µM, screen: GDSC drug entry 127

Cell Line	AUC (MPS-1-IN-1)	IC50 (MPS-1-IN-1) [µM]	AUC (ABT-869)	IC50 (ABT-869) [µM]	AUC (ABT-888)	IC50 (ABT-888) [µM]	AUC (GSK269962A; [1])	IC50 (GSK269962A; [1]) [µM]	AUC (Cytarabine)	IC50 (Cytarabine) [µM]	AUC (Thapsigargin)	IC50 (Thapsigargin) [µM]	AUC (CHIR-99021; [2])	IC50 (CHIR-99021; [2]) [µM]	AUC (CHIR-99021; [3])	IC50 (CHIR-99021; [3]) [µM]	AUC (CP466722)	IC50 (CP466722) [µM]	AUC ((5Z)-7-Oxozeaenol)	IC50 ((5Z)-7-Oxozeaenol) [µM]	AUC (QL-X-138)	IC50 (QL-X-138) [µM]	AUC (KU-55933)	IC50 (KU-55933) [µM]	AUC (Zibotentan)	IC50 (Zibotentan) [µM]	AUC (GSK269962A; [4])	IC50 (GSK269962A; [4]) [µM]
H2595 (mesothelioma, adherent)	0.981	> 20	0.974	> 1.02	0.965	> 5	0.92	> 5	0.715	0.656	0.533	0.0409	0.951	> 2.56	0.769	5.34	0.914	> 16	0.771	5.42	0.854	> 10.2	0.947	> 10	0.976	> 20	–	–
H2731 (mesothelioma, adherent)	0.756	7.76	0.984	> 1.02	0.98	> 5	0.941	> 5	0.646	0.337	0.376	0.0138	0.984	> 2.56	0.865	> 10	0.795	8.67	0.746	3.55	0.89	> 10.2	0.979	> 10	0.977	> 20	–	–
H2795 (mesothelioma, adherent)	0.969	> 20	0.98	> 1.02	0.969	> 5	0.977	> 5	0.953	> 2	0.753	0.169	0.987	> 2.56	0.983	> 10	0.579	1.64	0.696	2.2	0.735	2.96	0.884	> 10	0.984	> 20	–	–
H2869 (mesothelioma, adherent)	0.971	> 20	0.966	> 1.02	0.974	> 5	0.965	> 5	0.837	1.82	0.23	0.00424	0.898	> 2.56	0.912	> 10	0.764	7.17	0.729	3.33	0.613	1.41	0.984	> 10	0.976	> 20	–	–
H3118 (head and neck, adherent)	0.782	9.22	0.978	> 1.02	0.978	> 5	0.854	4.55	0.799	1.07	0.178	0.00306	0.921	> 2.56	0.851	8.79	0.816	9.97	0.617	1.35	0.824	6.88	0.945	> 10	0.978	> 20	–	–
HCC38 (breast, adherent)	0.985	> 20	0.986	> 1.02	0.986	> 5	0.948	> 5	0.834	1.45	0.266	0.00648	0.985	> 2.56	0.941	> 10	0.842	12.6	0.871	> 10	0.623	1.43	0.957	> 10	0.985	> 20	–	–
HCC1419 (breast, adherent)	0.979	> 20	0.974	> 1.02	0.961	> 5	0.968	> 5	0.832	> 2	0.869	> 0.512	0.98	> 2.56	0.962	> 10	0.808	12.9	0.9	> 10	0.655	2.08	0.979	> 10	0.98	> 20	–	–
HCC1428 (breast, adherent)	0.987	> 20	0.981	> 1.02	0.987	> 5	0.986	> 5	0.945	> 2	0.287	0.00748	0.983	> 2.56	0.977	> 10	0.847	13.4	0.884	> 10	0.864	> 10.2	0.966	> 10	0.986	> 20	–	–
HCC1500 (breast, adherent)	0.984	> 20	0.974	> 1.02	0.982	> 5	0.82	3.02	0.988	> 2	0.256	0.00618	0.985	> 2.56	0.987	> 10	0.626	2.26	0.859	8.86	0.591	1.15	0.967	> 10	0.982	> 20	0.956	> 2.5
HCC1569 (breast, adherent)	0.969	> 20	0.968	> 1.02	0.98	> 5	0.935	> 5	0.937	> 2	0.259	0.00509	0.846	> 2.56	0.925	> 10	0.69	4.12	0.783	5.76	0.701	2.88	0.909	> 10	0.975	> 20	–	–
HCC1954 (breast, adherent)	0.984	> 20	0.964	> 1.02	0.984	> 5	0.962	> 5	0.959	> 2	0.389	0.015	0.984	> 2.56	0.959	> 10	0.758	6.4	0.772	4.51	0.504	0.658	0.984	> 10	0.984	> 20	–	–
HCC-15 (lung squamous cell carcinoma, adherent)	0.964	> 20	0.975	> 1.02	0.958	> 5	0.922	> 5	0.927	> 2	0.318	0.0085	0.982	> 2.56	0.975	> 10	0.917	> 16	0.75	4.09	0.86	> 10.2	0.931	> 10	0.982	> 20	–	–
HCC-56 (large intestine, adherent)	0.876	> 20	0.984	> 1.02	0.987	> 5	0.905	> 5	0.913	> 2	0.468	0.0261	0.987	> 2.56	0.986	> 10	0.908	> 16	0.704	2.39	0.976	> 10.2	0.969	> 10	0.983	> 20	–	–
HCC-78 (lung adenocarcinoma, adherent)	0.927	> 20	0.977	> 1.02	0.978	> 5	0.968	> 5	0.77	0.892	0.659	0.0959	0.983	> 2.56	0.884	> 10	0.809	10.1	0.844	9.08	0.67	2.08	0.941	> 10	0.981	> 20	–	–
HDQ-P1 (breast, adherent)	0.931	> 20	0.977	> 1.02	0.985	> 5	0.963	> 5	0.883	> 2	0.158	0.00219	0.956	> 2.56	0.924	> 10	0.826	12.4	0.632	1.55	0.889	> 10.2	0.975	> 10	0.984	> 20	–	–
HEC-1 (endometrium, adherent)	0.988	> 20	0.986	> 1.02	0.923	> 5	0.87	4.38	0.865	1.66	0.357	0.013	0.98	> 2.56	0.974	> 10	0.983	> 16	0.742	2.99	0.935	> 10.2	0.966	> 10	0.987	> 20	–	–
HGC-27 (stomach, adherent)	0.807	8.42	0.99	> 1.02	0.976	> 5	0.777	1.7	0.683	0.37	0.036	< 0.002	0.99	> 2.56	0.964	> 10	0.843	8.91	0.514	0.678	0.585	1.05	0.987	> 10	0.99	> 20	–	–
HN (head and neck, adherent)	0.989	> 20	0.978	> 1.02	0.981	> 5	0.57	0.48	0.577	0.2	0.954	> 0.512	0.988	> 2.56	0.956	> 10	0.983	> 16	0.495	0.605	0.937	> 10.2	0.979	> 10	0.989	> 20	–	–
HOS (osteosarcoma, adherent)	0.992	> 20	0.987	> 1.02	0.992	> 5	0.608	0.588	0.726	0.481	0.089	< 0.002	0.992	> 2.56	0.955	> 10	0.952	> 16	0.654	1.54	0.989	> 10.2	0.954	> 10	0.992	> 20	–	–
HSC-2 (head and neck, adherent)	0.979	> 20	0.985	> 1.02	0.989	> 5	0.981	> 5	0.84	1.23	0.19	0.0042	0.988	> 2.56	0.96	> 10	0.941	> 16	0.786	3.96	0.892	> 10.2	0.975	> 10	0.988	> 20	–	–

Lines with a small IC50 respond at low doses; where the fit passes the top or lowest dose, that dose stands as a limit. AUC sums up the same curve from the lowest dose to the 256-fold higher top dose; it is 1 without any effect and falls as sensitivity rises. For part of these data: Any top dose called inferred was derived from the fitted curves, not read from the paper. For part of these data: Drugs with an entry number were screened twice under separate entries, and the two screens often disagree.
